{"source": "the supplement of paper PMC8728848", "binders": {"B1": {"name": "CGL (Crenomytilus grayanus), H2FH31 (protein)", "chain": "MTTFLIKHKASGKFLHPYGGSSNPANNTKLVLHSDIHERMYFQFDVVDERWGYIKHVASGKIVHPYGGQANPPNETNMVLHQDRHDRALFAMDFFNDNIMHKGGKYIHPKGGSPNPPNNTETVIHGDKHAAMEFIFVSPKNKDKRVLVYA"}}, "experiment_in_all_cases": "glycan array binding signal (z-score within array); higher = stronger binding", "details_in_all_cases": "glycan notation: IUPAC condensed, linker removed", "key": {"[1]": {"target": "Neu5Ac(a2-6)Gal(b1-4)GlcNAc(b1-6)[Gal(b1-3)GlcNAc(b1-3)]Gal(b1-4)Glc", "how_it_was_run": "(§1)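 Columns mapping to the same glycan were averaged after glycan names were converted to IUPAC-condensed notation. The data come from 3228 arrays in the Consortium for Functional Glycomics database, limited to those with an available protein sequence. Binding is reported as a within-array Z-score averaged across arrays of one protein sequence and across linkers.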"}, "[2]": {"target": "Neu5Ac(a2-6)Gal(b1-4)GlcNAc(b1-6)[Gal(b1-3)]GalNAc", "how_it_was_run": "as §1"}, "[3]": {"target": "Neu5Ac(a2-6)Gal(b1-4)GlcNAc6S", "how_it_was_run": "as §1"}, "[4]": {"target": "Neu5Ac(a2-6)GalNAc", "how_it_was_run": "as §1"}, "[5]": {"target": "Neu5Ac(a2-6)GalNAc(b1-4)GlcNAc", "how_it_was_run": "as §1"}, "[6]": {"target": "Neu5Ac(a2-6)GalNAc(b1-4)GlcNAc6S", "how_it_was_run": "as §1"}, "[7]": {"target": "Neu5Ac(a2-6)GlcNAc(b1-4)GlcNAc", "how_it_was_run": "as §1"}, "[8]": {"target": "Neu5Ac(a2-6)GlcNAc(b1-4)GlcNAc(b1-4)GlcNAc", "how_it_was_run": "as §1"}, "[9]": {"target": "Neu5Ac(a2-8)Neu5Ac", "how_it_was_run": "as §1"}, "[10]": {"target": "Neu5Ac(a2-8)Neu5Ac(a2-3)Gal(b1-3)GalNAc(b1-4)[Neu5Ac(a2-3)]Gal(b1-4)Glc", "how_it_was_run": "as §1"}, "[11]": {"target": "Neu5Ac(a2-8)Neu5Ac(a2-3)Gal(b1-3)GalNAc(b1-4)[Neu5Ac(a2-8)Neu5Ac(a2-3)]Gal(b1-4)Glc", "how_it_was_run": "as §1"}, "[12]": {"target": "Neu5Ac(a2-8)Neu5Ac(a2-3)Gal(b1-4)Glc", "how_it_was_run": "as §1"}, "[13]": {"target": "Neu5Ac(a2-8)Neu5Ac(a2-3)Gal(b1-4)GlcNAc", "how_it_was_run": "as §1"}, "[14]": {"target": "Neu5Ac(a2-8)Neu5Ac(a2-3)[Gal(b1-3)GalNAc(b1-4)]Gal(b1-4)Glc", "how_it_was_run": "as §1"}, "[15]": {"target": "Neu5Ac(a2-8)Neu5Ac(a2-3)[GalNAc(b1-4)]Gal(b1-4)Glc", "how_it_was_run": "as §1"}, "[16]": {"target": "Neu5Ac(a2-8)Neu5Ac(a2-8)Neu5Ac", "how_it_was_run": "as §1"}, "[17]": {"target": "Neu5Ac(a2-8)Neu5Ac(a2-8)Neu5Ac(a2-3)Gal(b1-4)Glc", "how_it_was_run": "as §1"}, "[18]": {"target": "Neu5Ac(a2-8)Neu5Ac(a2-8)Neu5Ac(a2-3)[Gal(b1-3)GalNAc(b1-4)]Gal(b1-4)Glc", "how_it_was_run": "as §1"}, "[19]": {"target": "Neu5Ac(a2-8)Neu5Ac(a2-8)Neu5Ac(a2-3)[GalNAc(b1-4)]Gal(b1-4)Glc", "how_it_was_run": "as §1"}, "[20]": {"target": "Neu5Ac(a2-8)Neu5Ac(a2-8)Neu5Ac(a2-8)Neu5Ac(a2-3)[GalNAc(b1-4)]Gal(b1-4)Glc", "how_it_was_run": "as §1"}, "[21]": {"target": "Neu5Ac(a2-8)Neu5Gc(a2-3)Gal(b1-4)GlcNAc", "how_it_was_run": "as §1"}, "[22]": {"target": "Neu5Ac(b2-6)Gal(b1-4)GlcNAc", "how_it_was_run": "as §1"}, "[23]": {"target": "Neu5Ac(b2-6)GalNAc", "how_it_was_run": "as §1"}, "[24]": {"target": "Neu5Ac9Ac(a2-3)Gal(b1-3)GlcNAc", "how_it_was_run": "as §1"}, "[25]": {"target": "Neu5Ac9Ac(a2-3)Gal(b1-4)GlcNAc", "how_it_was_run": "as §1"}, "[26]": {"target": "Neu5Ac9Ac(a2-6)Gal(b1-4)GlcNAc", "how_it_was_run": "as §1"}, "[27]": {"target": "Neu5Gc(a2-3)Gal(b1-3)GlcNAc", "how_it_was_run": "as §1"}, "[28]": {"target": "Neu5Gc(a2-3)Gal(b1-3)[Fuc(a1-4)]GlcNAc", "how_it_was_run": "as §1"}, "[29]": {"target": "Neu5Gc(a2-3)Gal(b1-4)Glc", "how_it_was_run": "as §1"}, "[30]": {"target": "Neu5Gc(a2-3)Gal(b1-4)GlcNAc", "how_it_was_run": "as §1"}, "[31]": {"target": "Neu5Gc(a2-3)Gal(b1-4)GlcNAc(b1-3)Gal(b1-4)GlcNAc(b1-2)Man(a1-3)[Neu5Gc(a2-3)Gal(b1-4)GlcNAc(b1-3)Gal(b1-4)GlcNAc(b1-2)Man(a1-6)]Man(b1-4)GlcNAc(b1-4)GlcNAc", "how_it_was_run": "as §1"}, "[32]": {"target": "Neu5Gc(a2-3)Gal(b1-4)[Fuc(a1-3)]GlcNAc", "how_it_was_run": "as §1"}, "[33]": {"target": "Neu5Gc(a2-6)Gal(b1-4)GlcNAc", "how_it_was_run": "as §1"}, "[34]": {"target": "Neu5Gc(a2-6)GalNAc", "how_it_was_run": "as §1"}, "[35]": {"target": "Neu5Gc(a2-8)Neu5Ac(a2-3)Gal(b1-4)GlcNAc", "how_it_was_run": "as §1"}, "[36]": {"target": "Neu5Gc(a2-8)Neu5Gc(a2-3)Gal(b1-4)GlcNAc", "how_it_was_run": "as §1"}, "[37]": {"target": "Neu5Gc(a2-8)Neu5Gc(a2-3)Gal(b1-4)GlcNAc(b1-3)Gal(b1-4)GlcNAc", "how_it_was_run": "as §1"}, "[38]": {"target": "Neu5Gc(a2-8)Neu5Gc(a2-6)Gal(b1-4)GlcNAc", "how_it_was_run": "as §1"}, "[39]": {"target": "Neu5Gc(b2-6)Gal(b1-4)GlcNAc", "how_it_was_run": "as §1"}}, "note": "Some of the results follow."}
{"binder": "B1", "values": [{"measurement": "glycan array binding signal (z-score)", "setting": "[1]", "result": -0.15}, {"measurement": "glycan array binding signal (z-score)", "setting": "[2]", "result": -0.388}, {"measurement": "glycan array binding signal (z-score)", "setting": "[3]", "result": -0.326}, {"measurement": "glycan array binding signal (z-score)", "setting": "[4]", "result": -0.349}, {"measurement": "glycan array binding signal (z-score)", "setting": "[5]", "result": -0.454}, {"measurement": "glycan array binding signal (z-score)", "setting": "[6]", "result": -0.355}, {"measurement": "glycan array binding signal (z-score)", "setting": "[7]", "result": -0.334}, {"measurement": "glycan array binding signal (z-score)", "setting": "[8]", "result": -0.377}, {"measurement": "glycan array binding signal (z-score)", "setting": "[9]", "result": -0.335}, {"measurement": "glycan array binding signal (z-score)", "setting": "[10]", "result": -0.258}, {"measurement": "glycan array binding signal (z-score)", "setting": "[11]", "result": -0.156}, {"measurement": "glycan array binding signal (z-score)", "setting": "[12]", "result": -0.415}, {"measurement": "glycan array binding signal (z-score)", "setting": "[13]", "result": -0.387}, {"measurement": "glycan array binding signal (z-score)", "setting": "[14]", "result": -0.392}, {"measurement": "glycan array binding signal (z-score)", "setting": "[15]", "result": -0.366}, {"measurement": "glycan array binding signal (z-score)", "setting": "[16]", "result": -0.315}, {"measurement": "glycan array binding signal (z-score)", "setting": "[17]", "result": -0.311}, {"measurement": "glycan array binding signal (z-score)", "setting": "[18]", "result": -0.174}, {"measurement": "glycan array binding signal (z-score)", "setting": "[19]", "result": -0.372}, {"measurement": "glycan array binding signal (z-score)", "setting": "[20]", "result": -0.352}, {"measurement": "glycan array binding signal (z-score)", "setting": "[21]", "result": -0.446}, {"measurement": "glycan array binding signal (z-score)", "setting": "[22]", "result": -0.426}, {"measurement": "glycan array binding signal (z-score)", "setting": "[23]", "result": -0.351}, {"measurement": "glycan array binding signal (z-score)", "setting": "[24]", "result": -0.374}, {"measurement": "glycan array binding signal (z-score)", "setting": "[25]", "result": -0.297}, {"measurement": "glycan array binding signal (z-score)", "setting": "[26]", "result": -0.355}, {"measurement": "glycan array binding signal (z-score)", "setting": "[27]", "result": -0.403}, {"measurement": "glycan array binding signal (z-score)", "setting": "[28]", "result": -0.349}, {"measurement": "glycan array binding signal (z-score)", "setting": "[29]", "result": -0.418}, {"measurement": "glycan array binding signal (z-score)", "setting": "[30]", "result": -0.291}, {"measurement": "glycan array binding signal (z-score)", "setting": "[31]", "result": -0.312}, {"measurement": "glycan array binding signal (z-score)", "setting": "[32]", "result": -0.312}, {"measurement": "glycan array binding signal (z-score)", "setting": "[33]", "result": -0.252}, {"measurement": "glycan array binding signal (z-score)", "setting": "[34]", "result": -0.32}, {"measurement": "glycan array binding signal (z-score)", "setting": "[35]", "result": -0.384}, {"measurement": "glycan array binding signal (z-score)", "setting": "[36]", "result": -0.331}, {"measurement": "glycan array binding signal (z-score)", "setting": "[37]", "result": -0.376}, {"measurement": "glycan array binding signal (z-score)", "setting": "[38]", "result": -0.427}, {"measurement": "glycan array binding signal (z-score)", "setting": "[39]", "result": -0.295}]}
